The other results are listed elsewhere or left out.
B1: 98574621_98575875_8501_CDS_ENSG00000196367_ENST00000355540|human|control|control (ssRNA)
RNA: GGGAGUUCUACAGUCCGACGAUCUUUUUUGGCUUUAUCCAUUGCCUUUUCAUAGGAUUCUUGUGCCUGCUCAAAGAACCCGUGCUGCUCGUAAGCAAUCGCAGUCGCUGUCUCCGAGUACUUGCACCGCUUCUGCCACAGACCCAACAGAGGAUUGAGCAUCA
B2: chr1:58468927:58468928:-_ENSMUSG00000026034_ENSMUST00000148330|mus_mus|mus_mus_mus_hu_False|1_58 (ssRNA)
RNA: GGGAGUUCUACAGUCCGACGAUCAAUUACUGAAAAAGAUGUUCAUUACCUUAGCUAUGUACUUAAUGAACCAAAUUAUCUAAAAAAAAUAAACAUGGCAAUAUAAAAAUGUUAAGAAUUUACAAAGCUGUACAAAAAGACUGACAACAGAGGAUUGAGCAUCA
B3: 178370291_178378592_1739_CDS_ENSG00000018510_ENST00000264167|human|control|control (ssRNA)
RNA: GGGAGUUCUACAGUCCGACGAUCUUCCCUUGUUAUUCUUUCUUUUACAUUUCUACAGAGAUCUACCACCCUGUCCCAAGGAGCAGAAGUCUCAAAAGAUUCUCCUAAUACAUAGUAUUCCAAAGCCAAGUCUCGAAUGUAUGCCAACAGAGGAUUGAGCAUCA
B4: chr2:39052001:39052002:-_ENSMUSG00000026753_ENSMUST00000028087|mus_hu|motif|central (ssRNA)
RNA: GGGAGUUCUACAGUCCGACGAUCCAACUGGUAUCAAAUUAACACAUCAGCAUUACAAGUAUUAAAUGUUUUUCUAUUACGGUAGAGGAUAUAAACCAAAACAUUAAUAUGGCAGUUAUGUUCUUUAGGCACAGUUUAGUGAUUCAACAGAGGAUUGAGCAUCA
B5: chr3:33863462:33863463:+_ENSG00000170248_ENST00000307296|hu_mus|motif|central (ssRNA)
RNA: GGGAGUUCUACAGUCCGACGAUCUGCAAUCUGGCUAGCUAAGGCAGCACAAUUGAACAACACACAGCUCUUUUCAUAUCCGGAGCUUGCAAGAGCCAAUUUUACAGACCCUCCAAAAAGGGAACCUUUAUCAAAAGCAUCCUUCAACAGAGGAUUGAGCAUCA
B6: chr9:123526118:123526119:-_ENSG00000119402_ENST00000608872|hu_hu|FALSE|FALSE (ssRNA)
RNA: GGGAGUUCUACAGUCCGACGAUCGAGUUCCAGGGUAAGAGGCCCGGUCUCUAACCUUCCAGCUCACUGCUCUUUUCUGCUAUACCAGGGCACCGCUGUGCAGUCAUCCAGGCUGCCGGGGACUAGCUUCCCCGACAUGGCAACCAACAGAGGAUUGAGCAUCA
B7: chr8:54879716:54879717:-_ENSG00000187735_ENST00000521604|hu_hu|motif|central (ssRNA)
RNA: GGGAGUUCUACAGUCCGACGAUCCAAUCUCACUCAUGACAGAAAAAGUCAGCAAAUAAGACUUGGGACAAAAUUAUUUUCGGUCAGUCUCCACAUGGAAAGACCACAGCUUUAAUGAAUUAUACAAUCCUUAAGAUUAAUCCUCAACAGAGGAUUGAGCAUCA
B8: chr11:99071305:99071306:-_ENSMUSG00000037935_ENSMUST00000103133|mus_mus|FALSE|FALSE (ssRNA)
RNA: GGGAGUUCUACAGUCCGACGAUCAAGACCUUCAUGUUGUAUCAACGGAAAAGUAAAUAAUUAAUACACAGACCACAUAACACCAUUAAAACCAAAAAAAAAACCACAUUUUUUUUUCAUUUAAAAAAGUUUUAGGUCACAUAACAACAGAGGAUUGAGCAUCA
B9: 69695938_69699410_2878_CDS_ENSG00000148634_ENST00000373700|human|control|control (ssRNA)
RNA: GGGAGUUCUACAGUCCGACGAUCACCAUUUAGAACCAGCUCUUUCACUUCUGUUGCACCAAAGUUUUCAACUGUGAUCGUAAAAUUAAGACAAAAUGUUUCCUCUAUGUCAUCUUCUGGAUAAUCCAGUAACUGUUGCAUGCUCAACAGAGGAUUGAGCAUCA
B10: chr11:102150864:102150865:-_ENSMUSG00000059995_ENSMUST00000137387|mus_hu|FALSE|FALSE (ssRNA)
RNA: GGGAGUUCUACAGUCCGACGAUCAAUUAGUACAGAACCCCCCCACACACACUCAGACACAGGAUACAGGGUGGACGACACCUAGCCGGGGUGGGAAGGAUGGGAAUUGAAACCCACACAGCCUGCUGUUAGAGGGAGGGGAGUCAACAGAGGAUUGAGCAUCA
B11: chr2:101883234:101883235:+_ENSG00000158435_ENST00000289382|hu_hu|motif|central (ssRNA)
RNA: GGGAGUUCUACAGUCCGACGAUCGAAAUACUCAGUGAUCUGGCUUGACUGCAUUAAUUUCAGCAACAUUUCUAUAGCGACGGAAGGGUUGUUUUCCACAAGGUCAGGAAGUUUGGCUGGGGUGAGGCCAAUAUGGUAGACAAGCAACAGAGGAUUGAGCAUCA
B12: chr4:4691572:4691573:-_ENSMUSG00000066324_ENSMUST00000084949|mus_hu|FALSE|FALSE (ssRNA)
RNA: GGGAGUUCUACAGUCCGACGAUCACCAUAGAUUAGGUUUAUUUUAUACAACAGUUACAAGACAGACCUUUUGUAGGCAUAUAAAUACAUCUUAAAUUCAAUCAAGAUCUAAAAUGAAAAAUUAUUUUUUCUUUCUAGGAUCAACAACAGAGGAUUGAGCAUCA
B13: chr17:60770872:60770873:+_ENSG00000011028_ENST00000303375|hu_hu|hu_hu_hu_mus_True|1_108 (ssRNA)
RNA: GGGAGUUCUACAGUCCGACGAUCUCUCUUUUCUUUUAAAAAAAAAGACAAACAAUAAUAGCACAUUUCGAGAAUCAAGAACUACAAUAGAGGGUCCGCUUUGAGUUUUUGUUCACAUCGUCCUGCACUGGGACACGACCAGGACAACAGAGGAUUGAGCAUCA
B14: chr9:130210260:130210261:-_ENSG00000197958_ENST00000361436|hu_mus|motif|central (ssRNA)
RNA: GGGAGUUCUACAGUCCGACGAUCGCCCACAGACUGUGCAGUACCCAGGAUCUCCUUGAUAGUUCCAGAAAGUUCUCGGGCCAAAGACCGGUGUCUCAUCUGCCGGGCAAUGUUGACAAUCUCAUCAAAAGUAAUGUUCCCACUCAACAGAGGAUUGAGCAUCA

target: T1, UNK ZnF1-3 (human, UniProt Q9C0B0 31-174); experiment: nsRBNS (natural sequence RNA bind-n-seq); RBNS binding buffer (assumed for nsRBNS): 25 mM Tris pH 7.5, 150 mM KCl, 3 mM MgCl2, 0.01% Triton X-100, 500 ug/ml BSA, 20 U/ml SUPERase-In, 4 C; UNK is unkempt and MSI1 is Musashi-1; names of the RNAs are library labels; protein concentration not given here; high values mean tight binding
T1 sequence: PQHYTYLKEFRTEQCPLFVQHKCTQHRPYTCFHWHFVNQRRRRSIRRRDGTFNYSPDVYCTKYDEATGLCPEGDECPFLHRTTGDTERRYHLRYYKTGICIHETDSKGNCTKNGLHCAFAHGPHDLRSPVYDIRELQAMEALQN

Binder | binding signal
B1 | 0.348 enrichment R
B2 | 2.56 enrichment R
B3 | 1.34 enrichment R
B4 | 0.946 enrichment R
B5 | 0.97 enrichment R
B6 | 0.696 enrichment R
B7 | 1 enrichment R
B8 | 1.01 enrichment R
B9 | 1.15 enrichment R
B10 | 1.95 enrichment R
B11 | 1.47 enrichment R
B12 | 0.514 enrichment R
B13 | 1.39 enrichment R
B14 | 1.24 enrichment R

Reference: paper PMC12136788
